Reference: the supplement of paper PMC10681739
± gives the standard deviation of the averaged measurements. Whole data set: some 4,100 sequences, median “arbitrary fluorescence units” near 780, cut for the highest 2% near 22,000. This is one part of the list.

target: T1, ETS1 (UniProt P14921); assay: ETS1 binding intensity (PBM fluorescence), ETS1 alone (arbitrary fluorescence units); higher = stronger binding; details: ETS1 concentration 1 nM; RUNX1 concentration 0 nM
T1 sequence: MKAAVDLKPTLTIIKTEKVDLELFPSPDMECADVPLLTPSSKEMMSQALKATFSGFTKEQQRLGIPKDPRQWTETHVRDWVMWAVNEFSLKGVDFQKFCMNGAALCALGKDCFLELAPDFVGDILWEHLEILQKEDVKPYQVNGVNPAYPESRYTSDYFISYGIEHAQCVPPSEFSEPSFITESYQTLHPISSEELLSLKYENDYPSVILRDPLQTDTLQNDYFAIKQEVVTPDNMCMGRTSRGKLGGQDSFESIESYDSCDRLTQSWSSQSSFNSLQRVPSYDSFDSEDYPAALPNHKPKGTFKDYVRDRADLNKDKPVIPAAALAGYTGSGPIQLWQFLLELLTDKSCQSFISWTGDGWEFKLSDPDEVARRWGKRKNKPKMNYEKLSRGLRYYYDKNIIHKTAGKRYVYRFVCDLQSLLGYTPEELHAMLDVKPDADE
Description: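 gcPBM on 36-bp genomic-derived probes (partner site mutated) containing one ETS1 site and no RUNX1 site. Recombinant human ETS1 (1 nM) was incubated alone or with RUNX1 (25 nM) and detected by anti-ETS1 antibody fluorescence. Values are medians over 4 replicate spots (not normalised). The probes sit in constant array flanks that are not printed.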

ACAAGGAAACATTCAGAGGTTTTTAAGGTCAGGATT was tested. Which ETS1 binding intensity did it give?
The ETS1 binding intensity was 366.

How did the ETS1 binding intensity turn out when GAGGAGGAAGTGCGCTGGCTGTTCTGCTGCAGGCCG was run?
The ETS1 binding intensity was 1320.

For GGAGAAATCGCAACTCGGAACTACGGAAACGGAGGA, which ETS1 binding intensity is on record?
The ETS1 binding intensity was 516.

ATGGTCCAGGAAGATAAGGGCTGAAAAGCACCCACT was tested. Which ETS1 binding intensity did it give?
The ETS1 binding intensity was 393.

With CGTCCAGCAGCAAGGGAGAGCAGTTTCCTCCAGTGC as the sequence, how does the ETS1 binding intensity read?
The ETS1 binding intensity was 406.

GCGTTCCGCTGGTCGTGGGCTTTCAGCGCCCGCTGA was tested. Which ETS1 binding intensity did it give?
Its ETS1 binding intensity is 380.

With CATGATGGAAAGCACCACCAGCACTTCCGGCCCTGG as the sequence, how does the ETS1 binding intensity read?
Its ETS1 binding intensity is 7320.

For AGATGGGCATCCTGTGAGCCTGGGGTTCTCAGCATT, which ETS1 binding intensity is on record?
The ETS1 binding intensity was 2760.

How did the ETS1 binding intensity turn out when ATCGGCGGTCCCCCAGGTCCCGGATGTCGCGGACAG was run?
Its ETS1 binding intensity is 1030.

GGAGGGGCTGGCCGGAAGTGAACCGAAGAGCACGCT was tested. Which ETS1 binding intensity did it give?
The ETS1 binding intensity was 16700.

How did the ETS1 binding intensity turn out when GAGACTTTCGCTTCCGGCTGCCGTAGGCGCTTCGCT was run?
Its ETS1 binding intensity is 9940.

How did the ETS1 binding intensity turn out when TATATGTGACTTCTTATTGTGACTTACACTTCCTCA was run?
The ETS1 binding intensity was 567.

How did the ETS1 binding intensity turn out when AGCAAAAAGTTCCGGGGAAGCCGAGACCTCGACCTT was run?
Its ETS1 binding intensity is 753.

How did the ETS1 binding intensity turn out when CAACTCCGGCGCCCTCAGGCCACTTCCGCCTATGTA was run?
The ETS1 binding intensity was 4590.

AGCTGTTTGTAGTTGTCACACCTAGTTTCCTCTGTC was tested. Which ETS1 binding intensity did it give?
The ETS1 binding intensity was 574.

How did the ETS1 binding intensity turn out when TTGATAGCAAACTACACTCGGCACAGGAAGGAGAAC was run?
The ETS1 binding intensity was 490.

With TGCGCCGGGAGGAAGGGCTCCAAAACTACAGGGCGG as the sequence, how does the ETS1 binding intensity read?
Its ETS1 binding intensity is 362.

Which ETS1 binding intensity does the source give for GTTTGGTGTCGTTGCAGTACAGGATGCATAGTGAAG here?
The ETS1 binding intensity was 764.

For CCGCCCTGTAGTTTTGGAGCCCTTCCTCCCGGCGCA, which ETS1 binding intensity is on record?
Its ETS1 binding intensity is 432.

With AGCACCCCAGGAAACCATCGCCTCAGCCCTCATATT as the sequence, how does the ETS1 binding intensity read?
The ETS1 binding intensity was 557.

TAGGACAGCGGATTTTCAGTCCGGAGATTCCGGCCA was tested. Which ETS1 binding intensity did it give?
Its ETS1 binding intensity is 368.

With GGTGAAATTAACGACAGAAATAATGGGAAGTAGAGA as the sequence, how does the ETS1 binding intensity read?
The ETS1 binding intensity was 430.

How did the ETS1 binding intensity turn out when AGCAAATCCAAAAAAAAAAAAAAAAAGAGGAAATAA was run?
Its ETS1 binding intensity is 476.

Which ETS1 binding intensity does the source give for TGGTCGCCGTTTGGAACTGCGCGGGAAGTGGGTGGT here?
The ETS1 binding intensity was 327.

For CTTGACTTAACTACAAGACAGGATGGGTTGATGAAG, which ETS1 binding intensity is on record?
Its ETS1 binding intensity is 426.

GTTGTCCGTGAGCACCAGCCCCAAAGGAAATGCCCT was tested. Which ETS1 binding intensity did it give?
Its ETS1 binding intensity is 483.

For AAAACCCAAGCCACCCCTCAGGAAGCGTTAAGCAAG, which ETS1 binding intensity is on record?
The ETS1 binding intensity was 344.

How did the ETS1 binding intensity turn out when CAGGCTGCTTCCGGCGCGCGGCAGAGCGGCCAGAGC was run?
Its ETS1 binding intensity is 17900.

For CGCCTTCCGCCATCTTCTTCCACTAACGGTAGGGGA, which ETS1 binding intensity is on record?
The ETS1 binding intensity was 3980.

With AGCCGCTAAAGACCACCGCTTCCGGCCTCTGCTTAG as the sequence, how does the ETS1 binding intensity read?
The ETS1 binding intensity was 13000.

For AGCTCATCCTGAGGCTGCCCACACGGCTGTAGGTCC, which ETS1 binding intensity is on record?
The ETS1 binding intensity was 762.

Which ETS1 binding intensity does the source give for AGTTCTGGGCTCACCTGGAGGAGTTTCCTGGAGTGG here?
Its ETS1 binding intensity is 398.

CTCAAGAGCGCTTACGGGAGCCTCTCGGCTTCCGTC was tested. Which ETS1 binding intensity did it give?
Its ETS1 binding intensity is 358.

How did the ETS1 binding intensity turn out when TAATTTTTTTTAAGCACTTCCAGGATATCTTGCCCA was run?
The ETS1 binding intensity was 570.

For TGAGTCACATCCTGCAGGGCTTCGGTATCCTGGCTT, which ETS1 binding intensity is on record?
Its ETS1 binding intensity is 6840.

For CCTTGGGCTTTGGGGTCTCCCACATCCGGCCTGCCC, which ETS1 binding intensity is on record?
The ETS1 binding intensity was 5460.

For TCCTGTCCCACTGGGGTTCCTGGGATGTTTGTTGTT, which ETS1 binding intensity is on record?
Its ETS1 binding intensity is 400.

With TTTGCTATTCATGGTTCATTTCCTTTTCCTCCTTGT as the sequence, how does the ETS1 binding intensity read?
The ETS1 binding intensity was 1240.

For TGCCGCGGATACCCAGCCAGCGGCAGTGCGCTTAAC, which ETS1 binding intensity is on record?
Its ETS1 binding intensity is 333.

Which ETS1 binding intensity does the source give for TCAAAGACTCAGCGTTTACCCCCTTCCGGGCCGCGC here?
The ETS1 binding intensity was 665.

With CTTCCCTTGCCCCGGAAAAGGGCGGCAAGAGGGAGC as the sequence, how does the ETS1 binding intensity read?
The ETS1 binding intensity was 611.

For TTCTGACTCACCTTCCTGTAGGTTGGATTTCTGCAT, which ETS1 binding intensity is on record?
Its ETS1 binding intensity is 1090.

With ACTAGATTAATCACATCCACTTCCGGTGGGGCTGGA as the sequence, how does the ETS1 binding intensity read?
Its ETS1 binding intensity is 15900.

Which ETS1 binding intensity does the source give for GGCGCGGGCGCTGTCCGCCCTCTCTTCCGGAGGGCG here?
The ETS1 binding intensity was 653 ± 10.

How did the ETS1 binding intensity turn out when TGGGCATTGCCGCTTTCCAGCGGAAGGGGGCATCTT was run?
Its ETS1 binding intensity is 628.

For GCACCGTACCCGGAACTGCTCCCTCCCGCTGGCGCA, which ETS1 binding intensity is on record?
Its ETS1 binding intensity is 580.

How did the ETS1 binding intensity turn out when CCGGAGGCCGTAGGCCGCTCAGGCTTCCGCTCCCAC was run?
Its ETS1 binding intensity is 711 ± 58.

Which ETS1 binding intensity does the source give for ACCAGAGAAGGAAATACACAGTAAACGCACTGCCTC here?
Its ETS1 binding intensity is 596.

Which ETS1 binding intensity does the source give for GGCGGAACTTGTGCGTACGCTGGAAATCCGCTGGGG here?
The ETS1 binding intensity was 533.

How did the ETS1 binding intensity turn out when CCGCCCCCGGACGGTCACAGCACCCAAACAGCAGGC was run?
Its ETS1 binding intensity is 455.

Which ETS1 binding intensity does the source give for GGCGCAAGTTTCGGAGTTTCTGTTTCCTTTTTCCTC here?
The ETS1 binding intensity was 531.

With CTTTTTTGTGACTTACCAGAACCAATATCCGGCATT as the sequence, how does the ETS1 binding intensity read?
Its ETS1 binding intensity is 1610.

For TGTTTAGATGTGAGCACACCTGACATCCGCGGGCTC, which ETS1 binding intensity is on record?
Its ETS1 binding intensity is 432.

ACGACCGGAACGTGGACAACCAGGGGTTGTTCCTCC was tested. Which ETS1 binding intensity did it give?
The ETS1 binding intensity was 504.

With CCTCTTGGTTTCCTGTCCCTCACCTCAAGAAGCAGT as the sequence, how does the ETS1 binding intensity read?
Its ETS1 binding intensity is 8280.

With AGCTGCCAACAGCAGCGCTACTTCCGGCCGCCTCCG as the sequence, how does the ETS1 binding intensity read?
Its ETS1 binding intensity is 17900.

AGGAGTGAGGAAGTGAGGCTGGCCTTGTAGGTGTGG was tested. Which ETS1 binding intensity did it give?
The ETS1 binding intensity was 707.

How did the ETS1 binding intensity turn out when AGGTGTAGGTGACTCAGAGCGGGCGGATGAGAACAG was run?
The ETS1 binding intensity was 450.

Which ETS1 binding intensity does the source give for GCATGCGCCTTGCTCGGTACTCAGCTGACTTCCTGT here?
Its ETS1 binding intensity is 952.

For ACAAAGTCAGTGGCAATGTGGAACGTCCGCCAAGAG, which ETS1 binding intensity is on record?
Its ETS1 binding intensity is 384.

How did the ETS1 binding intensity turn out when GAGAAAGCAGCGCCCCAGCGCGCCTTCCGCCACGCC was run?
Its ETS1 binding intensity is 328.

With TCCACGGTGCCTCTAGGGGGCGGGGCTTCCGGCTGG as the sequence, how does the ETS1 binding intensity read?
The ETS1 binding intensity was 981.

Which ETS1 binding intensity does the source give for CCGGATTGGTCCGGTTCCAGCGCCGAAGCCCGGCGG here?
Its ETS1 binding intensity is 354.
